The values below come from PubChem BioAssay AID1645882 (National Center for Advancing Translational Sciences (NCATS), 2021).

Structures are written as SMILES. The whole screen tested about 16,000 compounds, of which about 120 (0.75%) were called active. Inconclusive results (about 4%) are left out. Calls follow the shape of the dose curve; as a rule, active = well fitted inhibition curve with a large enough effect; inconclusive = small, poorly fitted or top-dose-only effect; inactive = no such curve, though single readings can be large or run the other way. Some of the results follow.

Chain of UniProt O95398 (O95398 whole entry, looked up): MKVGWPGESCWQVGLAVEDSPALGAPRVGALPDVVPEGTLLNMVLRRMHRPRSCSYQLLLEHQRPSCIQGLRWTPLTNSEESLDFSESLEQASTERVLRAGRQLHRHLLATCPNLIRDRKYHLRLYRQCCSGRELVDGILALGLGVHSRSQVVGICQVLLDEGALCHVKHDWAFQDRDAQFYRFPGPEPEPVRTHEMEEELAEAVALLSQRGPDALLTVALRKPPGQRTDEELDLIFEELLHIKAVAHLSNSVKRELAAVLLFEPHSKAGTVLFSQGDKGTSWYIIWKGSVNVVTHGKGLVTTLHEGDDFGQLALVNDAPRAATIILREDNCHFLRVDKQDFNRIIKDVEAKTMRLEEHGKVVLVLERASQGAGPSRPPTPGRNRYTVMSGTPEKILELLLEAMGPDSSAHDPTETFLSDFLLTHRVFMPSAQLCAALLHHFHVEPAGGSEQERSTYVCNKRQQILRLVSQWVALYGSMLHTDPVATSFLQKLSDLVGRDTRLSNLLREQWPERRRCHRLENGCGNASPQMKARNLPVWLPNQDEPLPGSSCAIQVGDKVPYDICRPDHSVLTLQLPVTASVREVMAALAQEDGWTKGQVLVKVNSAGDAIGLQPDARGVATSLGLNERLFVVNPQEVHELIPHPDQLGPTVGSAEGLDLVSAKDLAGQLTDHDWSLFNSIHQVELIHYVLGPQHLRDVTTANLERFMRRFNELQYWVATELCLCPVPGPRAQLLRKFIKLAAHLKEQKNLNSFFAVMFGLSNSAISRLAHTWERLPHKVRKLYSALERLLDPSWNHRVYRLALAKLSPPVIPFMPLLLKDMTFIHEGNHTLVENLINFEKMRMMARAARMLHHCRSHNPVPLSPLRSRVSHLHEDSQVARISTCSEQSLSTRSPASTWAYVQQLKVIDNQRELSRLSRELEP

The target of the experiment is Rap guanine nucleotide exchange factor 3 (Homo sapiens) (UniProt O95398). Kind of experiment: Validation qHTS for antagonist of cAMP-regulated guanine nucleotide exchange factor 3 (EPAC1).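 Also: plate controls were DMSO for no effect and ATA control for full effect; nearly all actives have a fitted effect of over 75% in size.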 To be noted: EPAC1 Rap1B-BODIPY-GDP exchange, fluorescence; series mostly up to 150 µM; activity change, negative = inhibition: at the top concentration. In a few lines:
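EPAC1 (100 nM) mixed with 250 nM RAP1B-BODIPY-GDP and 50 uM GDP; compounds in concentration series, 5 min at room temperature. Fluorescence (ex 480/em 540 nm) read every 5 min for 30 min; normalized to ATA control and DMSO.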
On the technique in general: Quantitative high-throughput screening tests each substance at several concentrations.
Consider `COc1ccc(-c2nc3cnc(Oc4cccc(Cl)c4)nc3n(C3CC3)c2=O)cc1`, for which the “activity change, negative = inhibition” value was inactive: 13.8%.
For `O=S(=O)(NCc1nc(N2CCCC2)c2cc(Cl)ccc2n1)c1ccccc1OC(F)(F)F` the value was inactive: -4.38%; for `O=C1C[C@H]2C=CCc3cccc(c32)CN1Cc1ccc(Br)cc1`, inactive: -11.3%.
For `Cc1cc(N(C)C)cc(C)c1C=O` the value was inactive: 19.6%.
For `OCCCNCc1cc2ccc(F)cc2nc1N1CCN(c2cccc(Cl)c2)CC1` the value was inactive: -4.89%; for `CCN(CC)CCNC(=O)c1cc(Br)c(N)cc1OC`, inactive: 16.4%.
For the compound `Nc1nc(/C(=C/CC(=O)O)C(=O)N[C@@H]2C(=O)N3C(C(=O)O)=CCS[C@H]23)cs1`, the “activity change, negative = inhibition” value is inactive: 28.7%.
For `C[N@+]12CCCC[C@@H]1CCC(=C(c1cccs1)c1cccs1)C2` the value was inactive: 9.22%; for `O=C(Oc1ccccc1)N1CCC[C@@]2(CCN(c3ccncc3)C2)C1`, inactive: 13.9%.
On to `CC(C)CCC[C@@H](C)[C@H]1CC[C@H]2[C@@H]3CC[C@@H]4C[C@H](O)CC[C@]4(C)[C@H]3CC[C@]12C`, for which the “activity change, negative = inhibition” value is inactive: -0.317%.
`C=CCN1CCc2cc(O)c(O)cc2C(c2ccccc2)C1` (centres undefined): the “activity change, negative = inhibition” value was inactive: 1.16% [at 75.8 µM].
For `c1ccc2c(NC3CCNCC3)nc(-c3ccoc3)nc2c1` the value was inactive: 3.73%; for `O=C(C[n+]1cccc(Br)c1)c1ccc(I)cc1`, inactive: 24%.
In the case of `Nc1ncnc2nc[nH]c12` it was inactive: 16.3%.
With `O=C(CN1Cc2ccccc2OC(c2ccsc2)C1)NCc1ccc2c(c1)OCO2` (centres undefined), the “activity change, negative = inhibition” value was inactive: -4.22%.
In the case of `O=C(NCCCCCCNC(=O)ON=C1CCCCC1)ON=C1CCCCC1` it was inactive: 31.2% [at 201 µM]; in that of `COc1ccccc1C1CN(Cc2cnn(C)c2)Cc2ccccc2O1` (centres undefined), inactive: 12.7%.
Consider `O=C(c1ccco1)N1CCC2(CCCN(c3ccccn3)C2)CC1`, for which the “activity change, negative = inhibition” value is inactive: 3.96%.
As to `OCCN1CCN(CC/C=C2/c3ccccc3Sc3ccc(Cl)cc32)CC1`, the “activity change, negative = inhibition” value is inactive: 22.2% [at 75.8 µM].
In the case of `CC(C)C[C@@H](CN=[N+]=[N-])N1CCN(Cc2ccccc2)CCC1=O` it was inactive: 0.863%; in that of `O=C(O)C(Cc1cc(I)c(O)c(I)c1)c1ccccc1` (centres undefined), inactive: 7.71%; in that of `CC(C)NC(=O)N1CC[C@@]2(CCCN(C(=O)c3cccn3C)C2)C1`, inactive: 11.3%.
For `Cc1c(CCO)sc[n+]1CC(=O)c1ccccc1` the value was inactive: 17.6%.
`O=c1cc(/C=C/c2ccc([N+](=O)[O-])cc2)c2ccccc2[nH]1`: the “activity change, negative = inhibition” value was inactive: 3.44%.
Regarding `NCCCS(=O)(=O)O`, the activity change, negative = inhibition entry is “inactive”.
For `CC(O)(COc1ccccc1)c1ccc2c(c1)CN(C/C=C/c1ccco1)CCO2` (centres undefined) the value was inactive: -13.4%; for `Cc1cnc(C)c(-c2cccc3c2OC(CNC(=O)/C=C/c2ccncc2)C3)n1` (centres undefined), inactive: 19.7%.
In the case of `CCC(=O)O[C@]1(C(=O)SCF)[C@H](C)C[C@H]2[C@@H]3C[C@H](F)C4=CC(=O)C=C[C@]4(C)[C@@]3(F)[C@@H](O)C[C@@]21C` it was inactive: 28% [at 75.8 µM]; in that of `COc1ccc(CN2CC[C@H]3C=CC[C@@H](C(=O)Nc4ccc(Cl)c(C(F)(F)F)c4)[C@H]3C2=O)cc1OC`, inactive: 2.44%; in that of `Nc1[nH]c(=O)ncc1F`, inactive: 23.9% [at 75.8 µM].
In the case of `COc1ncc2nc(-c3ccc(Cl)cc3)c(=O)n(Cc3cccs3)c2n1` it was inactive: -0.957%; in that of `O=C(O)c1ccc2c(c1)OCO2`, inactive: 15.5%.
On to `COc1ccc(-n2c(=O)c(-c3ccc(F)c(F)c3)nc3cncnc32)cc1`, for which the “activity change, negative = inhibition” value was inactive: 4.95%.
For `O=C(/C=C/c1ccccc1)c1ccc(O)cc1` the value was inactive: -12.2%; for `CN(Cc1ccco1)c1cc(-c2ccccc2Cl)ncn1`, inactive: 14.6%; for `CCc1cc(Cl)c(OC)c(C(=O)NC[C@@H]2CCCN2CC)c1O`, “inactive”.
For `COCCn1c(=O)c(-c2cccc(Cl)c2)nc2cncnc21`, the “activity change, negative = inhibition” value is inactive: 0.418%.
Turning to `CN(C)CCOC(=O)C(c1ccccc1)C1(O)CCCC1` (centres undefined), the activity change, negative = inhibition entry was “inactive”.
Consider `C[N+]1(C)C2CC(OC(=O)[C@H](CO)c3ccccc3)CC1C1OC12` (some centres undefined), for which the activity change, negative = inhibition result was “inactive”.
Turning to `CCCCN1CC[C@H]2C=CC[C@@H](C(=O)NCCc3ccccc3)[C@H]2C1=O`, the “activity change, negative = inhibition” value is inactive: -24.3%.
As for `Cc1cnc(-n2ncc(C(=O)NCC(C)(C)N3CCOCC3)c2C(C)C)nc1-c1ccc(F)cc1`, the “activity change, negative = inhibition” value was inactive: 13.9%.
In the case of `Nc1ncnc2c1ncn2[C@H]1O[C@@H](CSCC[C@@H](N)C(=O)O)[C@H](O)[C@@H]1O` it was inactive: 16%; in that of `O=C1O[C@H]([C@@H](O)CO)C(O)=C1O`, “inactive”; in that of `CN(C)c1ccc(C(=C2C=CC(=[N+](C)C)C=C2)c2ccccc2)cc1`, inactive: 6.76%.
For `COCCn1c(=O)c(-c2ccccc2)nc2cnc(N3CCN(C)CC3)nc21`, the “activity change, negative = inhibition” value was inactive: 10.1%.
With `CCNCCCNCCCNCCCNCC`, the “activity change, negative = inhibition” value was inactive: -6.31%.
As to `Clc1ccc(C(c2ccccc2Cl)C(Cl)Cl)cc1` (centres undefined), the activity change, negative = inhibition result is “inactive”.
As to `CCCCC/C=C\C/C=C\C/C=C\CCCCC(=O)O`, the “activity change, negative = inhibition” value is inactive: 12.2%.
In the case of `O=C(O)Cc1cc2ccccc2nc1C(=O)O` it was inactive: -3.09%.
For `COCC1CCCN(Cc2ccc3c(c2)CN(C(=O)c2ccc(OC)nc2OC)CCO3)C1` (centres undefined) the value was inactive: 27%.
In the case of `COCCNc1nc(-c2ccccc2OC)nc2ccccc12` it was inactive: 13.8%.
Turning to `N#Cc1cccc(-c2nccc(-n3ccnc3)n2)c1`, the “activity change, negative = inhibition” value is inactive: 10.4%.
For `CN(Cc1ccco1)Cc1cc(-c2ccnc3cc(Cl)ccc23)ccc1O` the value was inactive: 5.85%.
For `Cc1cccc(C)c1OCC(=O)N[C@@H](Cc1ccccc1)[C@@H](O)C[C@H](Cc1ccccc1)NC(=O)[C@H](C(C)C)N1CCCNC1=O` the value was inactive: -1.05%.
